Assay results reported in the supplement of paper PMC11876631.
± gives the standard deviation of the averaged measurements. Laboratory Escherichia coli strains with one amino-acid change in an essential protein, pooled on minimal glucose agar with carbenicillin or gentamicin at twice the control MIC (plus kanamycin and chloramphenicol for the plasmids), 48 h. Fold change of barcode share against drug-free plates; higher = less susceptible. Active = above 20 in both replicates (the paper's putatively resistant). '<' = one read or none on drug, '>' = one read or none on a drug-free plate. Shares are relative, so most strains fall below 1 when a few take over. Listed are strains with at least 15 reads on both drug-free plates, and hits; most hits rest on fewer reference reads. Replicate rank correlation about 0.5. Edits are read from barcodes.

B1: hemA V188A (protein)
chain: MTLLALGINHKTAPVSLRERVSFSPDKLDQALDSLLAQPMVQGGVVLSTCNRTELYLSVEEQDNLQEALIRWLCDYHNLNEEDLRKSLYWHQDNDAVSHLMRVASGLDSLVLGEPQILGQVKKAFADSQKGHMKASELERMFQKSFSVAKRVRTETDIGASAVSVAFAACTLARQIFESLSTVTVLLAGAGETIELVARHLREHKVQKMIIANRTRERAQILADEVGAEVIALSDIDERLREADIIISSTASPLPIIGKGMVERALKSRRNQPMLLVDIAVPRDVEPEVGKLANAYLYSVDDLQSIISHNLAQRKAAAVEAETIVAQETSEFMAWLRAQSASETIREYRSQAEQVRDELTAKALAALEQGGDAQAIMQDLAWKLTNRLIHAPTKSLQQAARDGDNERLNILRDSLGLE
B2: hemA V188P (protein)
chain: MTLLALGINHKTAPVSLRERVSFSPDKLDQALDSLLAQPMVQGGVVLSTCNRTELYLSVEEQDNLQEALIRWLCDYHNLNEEDLRKSLYWHQDNDAVSHLMRVASGLDSLVLGEPQILGQVKKAFADSQKGHMKASELERMFQKSFSVAKRVRTETDIGASAVSVAFAACTLARQIFESLSTVTVLLPGAGETIELVARHLREHKVQKMIIANRTRERAQILADEVGAEVIALSDIDERLREADIIISSTASPLPIIGKGMVERALKSRRNQPMLLVDIAVPRDVEPEVGKLANAYLYSVDDLQSIISHNLAQRKAAAVEAETIVAQETSEFMAWLRAQSASETIREYRSQAEQVRDELTAKALAALEQGGDAQAIMQDLAWKLTNRLIHAPTKSLQQAARDGDNERLNILRDSLGLE
B3: hemA V188W (protein)
chain: MTLLALGINHKTAPVSLRERVSFSPDKLDQALDSLLAQPMVQGGVVLSTCNRTELYLSVEEQDNLQEALIRWLCDYHNLNEEDLRKSLYWHQDNDAVSHLMRVASGLDSLVLGEPQILGQVKKAFADSQKGHMKASELERMFQKSFSVAKRVRTETDIGASAVSVAFAACTLARQIFESLSTVTVLLWGAGETIELVARHLREHKVQKMIIANRTRERAQILADEVGAEVIALSDIDERLREADIIISSTASPLPIIGKGMVERALKSRRNQPMLLVDIAVPRDVEPEVGKLANAYLYSVDDLQSIISHNLAQRKAAAVEAETIVAQETSEFMAWLRAQSASETIREYRSQAEQVRDELTAKALAALEQGGDAQAIMQDLAWKLTNRLIHAPTKSLQQAARDGDNERLNILRDSLGLE
B4: hemA V188D (protein)
chain: MTLLALGINHKTAPVSLRERVSFSPDKLDQALDSLLAQPMVQGGVVLSTCNRTELYLSVEEQDNLQEALIRWLCDYHNLNEEDLRKSLYWHQDNDAVSHLMRVASGLDSLVLGEPQILGQVKKAFADSQKGHMKASELERMFQKSFSVAKRVRTETDIGASAVSVAFAACTLARQIFESLSTVTVLLDGAGETIELVARHLREHKVQKMIIANRTRERAQILADEVGAEVIALSDIDERLREADIIISSTASPLPIIGKGMVERALKSRRNQPMLLVDIAVPRDVEPEVGKLANAYLYSVDDLQSIISHNLAQRKAAAVEAETIVAQETSEFMAWLRAQSASETIREYRSQAEQVRDELTAKALAALEQGGDAQAIMQDLAWKLTNRLIHAPTKSLQQAARDGDNERLNILRDSLGLE
B5: hemA L187A (protein)
chain: MTLLALGINHKTAPVSLRERVSFSPDKLDQALDSLLAQPMVQGGVVLSTCNRTELYLSVEEQDNLQEALIRWLCDYHNLNEEDLRKSLYWHQDNDAVSHLMRVASGLDSLVLGEPQILGQVKKAFADSQKGHMKASELERMFQKSFSVAKRVRTETDIGASAVSVAFAACTLARQIFESLSTVTVLAVGAGETIELVARHLREHKVQKMIIANRTRERAQILADEVGAEVIALSDIDERLREADIIISSTASPLPIIGKGMVERALKSRRNQPMLLVDIAVPRDVEPEVGKLANAYLYSVDDLQSIISHNLAQRKAAAVEAETIVAQETSEFMAWLRAQSASETIREYRSQAEQVRDELTAKALAALEQGGDAQAIMQDLAWKLTNRLIHAPTKSLQQAARDGDNERLNILRDSLGLE
B6: hemA V188Q (protein)
chain: MTLLALGINHKTAPVSLRERVSFSPDKLDQALDSLLAQPMVQGGVVLSTCNRTELYLSVEEQDNLQEALIRWLCDYHNLNEEDLRKSLYWHQDNDAVSHLMRVASGLDSLVLGEPQILGQVKKAFADSQKGHMKASELERMFQKSFSVAKRVRTETDIGASAVSVAFAACTLARQIFESLSTVTVLLQGAGETIELVARHLREHKVQKMIIANRTRERAQILADEVGAEVIALSDIDERLREADIIISSTASPLPIIGKGMVERALKSRRNQPMLLVDIAVPRDVEPEVGKLANAYLYSVDDLQSIISHNLAQRKAAAVEAETIVAQETSEFMAWLRAQSASETIREYRSQAEQVRDELTAKALAALEQGGDAQAIMQDLAWKLTNRLIHAPTKSLQQAARDGDNERLNILRDSLGLE
B7: argG L114Q (protein)
chain: MTTILKHLPVGQRIGIAFSGGLDTSAALLWMRQKGAVPYAYTANLGQPDEEDYDAIPRRAMEYGAENARLIDCRKQLVAEGIAAIQCGAFHNTTGGLTYFNTTPLGRAVTGTMQVAAMKEDGVNIWGDGSTYKGNDIERFYRYGLLTNAELQIYKPWLDTDFIDELGGRHEMSEFMIACGFDYKMSVEKAYSTDSNMLGATHEAKDLEYLNSSVKIVNPIMGVKFWDESVKIPAEEVTVRFEQGHPVALNGKTFSDDVEMMLEANRIGGRHGLGMSDQIENRIIEAKSRGIYEAPGMALLHIAYERLLTGIHNEDTIEQYHAHGRQLGRLLYQGRWFDSQALMLRDSLQRWVASQITGEVTLELRRGNDYSILNTVSENLTYKPERLTMEKGDSVFSPDDRIGQLTMRNLDITDTREKLFGYAKTGLLSSSAASGVPQVENLENKGQ
B8: argG M261A (protein)
chain: MTTILKHLPVGQRIGIAFSGGLDTSAALLWMRQKGAVPYAYTANLGQPDEEDYDAIPRRAMEYGAENARLIDCRKQLVAEGIAAIQCGAFHNTTGGLTYFNTTPLGRAVTGTMLVAAMKEDGVNIWGDGSTYKGNDIERFYRYGLLTNAELQIYKPWLDTDFIDELGGRHEMSEFMIACGFDYKMSVEKAYSTDSNMLGATHEAKDLEYLNSSVKIVNPIMGVKFWDESVKIPAEEVTVRFEQGHPVALNGKTFSDDVEMALEANRIGGRHGLGMSDQIENRIIEAKSRGIYEAPGMALLHIAYERLLTGIHNEDTIEQYHAHGRQLGRLLYQGRWFDSQALMLRDSLQRWVASQITGEVTLELRRGNDYSILNTVSENLTYKPERLTMEKGDSVFSPDDRIGQLTMRNLDITDTREKLFGYAKTGLLSSSAASGVPQVENLENKGQ
B9: argG V115A (protein)
chain: MTTILKHLPVGQRIGIAFSGGLDTSAALLWMRQKGAVPYAYTANLGQPDEEDYDAIPRRAMEYGAENARLIDCRKQLVAEGIAAIQCGAFHNTTGGLTYFNTTPLGRAVTGTMLAAAMKEDGVNIWGDGSTYKGNDIERFYRYGLLTNAELQIYKPWLDTDFIDELGGRHEMSEFMIACGFDYKMSVEKAYSTDSNMLGATHEAKDLEYLNSSVKIVNPIMGVKFWDESVKIPAEEVTVRFEQGHPVALNGKTFSDDVEMMLEANRIGGRHGLGMSDQIENRIIEAKSRGIYEAPGMALLHIAYERLLTGIHNEDTIEQYHAHGRQLGRLLYQGRWFDSQALMLRDSLQRWVASQITGEVTLELRRGNDYSILNTVSENLTYKPERLTMEKGDSVFSPDDRIGQLTMRNLDITDTREKLFGYAKTGLLSSSAASGVPQVENLENKGQ
B10: argG V115P (protein)
chain: MTTILKHLPVGQRIGIAFSGGLDTSAALLWMRQKGAVPYAYTANLGQPDEEDYDAIPRRAMEYGAENARLIDCRKQLVAEGIAAIQCGAFHNTTGGLTYFNTTPLGRAVTGTMLPAAMKEDGVNIWGDGSTYKGNDIERFYRYGLLTNAELQIYKPWLDTDFIDELGGRHEMSEFMIACGFDYKMSVEKAYSTDSNMLGATHEAKDLEYLNSSVKIVNPIMGVKFWDESVKIPAEEVTVRFEQGHPVALNGKTFSDDVEMMLEANRIGGRHGLGMSDQIENRIIEAKSRGIYEAPGMALLHIAYERLLTGIHNEDTIEQYHAHGRQLGRLLYQGRWFDSQALMLRDSLQRWVASQITGEVTLELRRGNDYSILNTVSENLTYKPERLTMEKGDSVFSPDDRIGQLTMRNLDITDTREKLFGYAKTGLLSSSAASGVPQVENLENKGQ
B11: argG V115Q (protein)
chain: MTTILKHLPVGQRIGIAFSGGLDTSAALLWMRQKGAVPYAYTANLGQPDEEDYDAIPRRAMEYGAENARLIDCRKQLVAEGIAAIQCGAFHNTTGGLTYFNTTPLGRAVTGTMLQAAMKEDGVNIWGDGSTYKGNDIERFYRYGLLTNAELQIYKPWLDTDFIDELGGRHEMSEFMIACGFDYKMSVEKAYSTDSNMLGATHEAKDLEYLNSSVKIVNPIMGVKFWDESVKIPAEEVTVRFEQGHPVALNGKTFSDDVEMMLEANRIGGRHGLGMSDQIENRIIEAKSRGIYEAPGMALLHIAYERLLTGIHNEDTIEQYHAHGRQLGRLLYQGRWFDSQALMLRDSLQRWVASQITGEVTLELRRGNDYSILNTVSENLTYKPERLTMEKGDSVFSPDDRIGQLTMRNLDITDTREKLFGYAKTGLLSSSAASGVPQVENLENKGQ

Biological target: Escherichia coli (laboratory strain)
Assay: barcode share on antibiotic plates over drug-free plates; higher = less susceptible
Conditions: antibiotic: carbenicillin; 2× MIC (3.1 µg/mL)
Procedure: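 A pool of E. coli strains, each edited to carry one amino-acid change in an essential protein, was grown for 48 h on minimal glucose agar with or without antibiotic; strain barcodes were sequenced; mean of two replicates.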

Protein	fold change of barcode share
B1	0.419 ± 0.098
B2	0.386 ± 0.07
B3	0.456 ± 0.13
B4	0.649 ± 0.17
B5	0.287 ± 0.02
B6	0.537 ± 0.14
B7	0.3577 ± 0.00088
B8	0.143 ± 0.022
B9	0.362 ± 0.16
B10	0.42 ± 0.054
B11	1.03 ± 0.11

Same assay, conditions: antibiotic: gentamicin; 2× MIC (MIC 0.45 µg/mL)

Protein	fold change of barcode share
B1	0.00752 ± 0.0056
B2	0.0519 ± 0.017
B3	3.26 ± 0.2
B4	159 ± 210
B5	< 0.00732
B6	0.00479 ± 0.00073
B7	0.238 ± 0.3
B8	< 0.0105
B9	0.0084 ± 0.0038
B10	0.00477 ± 0.0024
